# Source: the supplement of paper PMC8728848
# Some of the results follow.
# Assays:
# Assay in all cases: glycan array binding signal (z-score within array); higher = stronger binding
# Conditions in all cases: glycan notation: IUPAC condensed, linker removed
# [1] = target: Neu5Ac(a2-3)Gal(b1-3)GalNAc
# In short: (§1)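 Glycan array binding is given as a within-array Z-score, which can be read as non-binding when negative. The arrays, 3228 of them, came from the Consortium for Functional Glycomics database and were retained only where the protein sequence was available. Z-scores were averaged across arrays of the same protein sequence at different concentrations or buffers and across linkers.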
# [2] = target: Neu5Ac(a2-3)Gal(b1-3)GalNAc(b1-3)Gal(a1-4)Gal(b1-4)Glc
# In short: as §1
# [3] = target: Neu5Ac(a2-3)Gal(b1-3)GalNAc(b1-4)[Neu5Ac(a2-3)]Gal(b1-4)Glc
# In short: as §1
# [4] = target: Neu5Ac(a2-3)Gal(b1-3)GalNAc(b1-4)[Neu5Ac(a2-8)Neu5Ac(a2-3)]Gal(b1-4)Glc
# In short: as §1
# [5] = target: Neu5Ac(a2-3)Gal(b1-3)GalNAc6S
# In short: as §1
# [6] = target: Neu5Ac(a2-3)Gal(b1-3)GlcNAc
# In short: as §1
# [7] = target: Neu5Ac(a2-3)Gal(b1-3)GlcNAc(b1-2)Man(a1-3)[GlcNAc(b1-4)][Neu5Ac(a2-3)Gal(b1-3)GlcNAc(b1-2)Man(a1-6)]Man(b1-4)GlcNAc(b1-4)GlcNAc
# In short: as §1
# [8] = target: Neu5Ac(a2-3)Gal(b1-3)GlcNAc(b1-3)Gal(b1-3)GlcNAc
# In short: as §1
# [9] = target: Neu5Ac(a2-3)Gal(b1-3)GlcNAc(b1-3)Gal(b1-4)GlcNAc
# In short: as §1
# [10] = target: Neu5Ac(a2-3)Gal(b1-3)GlcNAc(b1-3)GalNAc
# In short: as §1
# [11] = target: Neu5Ac(a2-3)Gal(b1-3)GlcNAc(b1-6)GalNAc
# In short: as §1
# [12] = target: Neu5Ac(a2-3)Gal(b1-3)GlcNAc6S
# In short: as §1
# [13] = target: Neu5Ac(a2-3)Gal(b1-3)[Fuc(a1-4)]GlcNAc
# In short: as §1
# [14] = target: Neu5Ac(a2-3)Gal(b1-3)[Fuc(a1-4)]GlcNAc(b1-3)Gal(b1-3)[Fuc(a1-4)]GlcNAc
# In short: as §1
# [15] = target: Neu5Ac(a2-3)Gal(b1-3)[Fuc(a1-4)]GlcNAc(b1-3)Gal(b1-4)[Fuc(a1-3)]GlcNAc
# In short: as §1
# [16] = target: Neu5Ac(a2-3)Gal(b1-3)[Neu5Ac(a2-3)Gal(b1-4)]GlcNAc
# In short: as §1
# [17] = target: Neu5Ac(a2-3)Gal(b1-3)[Neu5Ac(a2-6)]GalNAc
# In short: as §1
# [18] = target: Neu5Ac(a2-3)Gal(b1-3)[Neu5Ac(a2-6)]GlcNAc(b1-3)[Fuc(a1-3)[Gal(b1-4)]GlcNAc(b1-6)]Gal(b1-4)Glc
# In short: as §1
# Neu5Ac(a2-3)Gal(b1-4)Glc = target: Neu5Ac(a2-3)Gal(b1-4)Glc
# In short: as §1
# [19] = target: Neu5Ac(a2-3)Gal(b1-4)GlcNAc
# In short: as §1
# [20] = target: Neu5Ac(a2-3)Gal(b1-4)GlcNAc(b1-2)Man
# In short: as §1
# [21] = target: Neu5Ac(a2-3)Gal(b1-4)GlcNAc(b1-2)Man(a1-3)[GlcNAc(b1-2)Man(b1-4)GlcNAc(b1-2)Man(a1-6)]Man(b1-4)GlcNAc(b1-4)GlcNAc
# In short: as §1
# [22] = target: Neu5Ac(a2-3)Gal(b1-4)GlcNAc(b1-2)Man(a1-3)[Neu5Ac(a2-3)Gal(b1-4)GlcNAc(b1-2)Man(a1-6)]Man(b1-4)GlcNAc(b1-4)[Fuc(a1-6)]GlcNAc
# In short: as §1
# [23] = target: Neu5Ac(a2-3)Gal(b1-4)GlcNAc(b1-2)Man(a1-3)[Neu5Ac(a2-6)Gal(b1-4)GlcNAc(b1-2)Man(a1-6)]Man(b1-4)GlcNAc(b1-4)GlcNAc
# In short: as §1
# [24] = target: Neu5Ac(a2-3)Gal(b1-4)GlcNAc(b1-2)[Neu5Ac(a2-3)Gal(b1-4)GlcNAc(b1-6)]Man(a1-6)[Neu5Ac(a2-3)Gal(b1-4)GlcNAc(b1-2)Man(a1-3)]Man(b1-4)GlcNAc(b1-4)GlcNAc
# In short: as §1
# [25] = target: Neu5Ac(a2-3)Gal(b1-4)GlcNAc(b1-3)Gal
# In short: as §1
# [26] = target: Neu5Ac(a2-3)Gal(b1-4)GlcNAc(b1-3)Gal(b1-3)GlcNAc
# In short: as §1
# [27] = target: Neu5Ac(a2-3)Gal(b1-4)GlcNAc(b1-3)Gal(b1-4)GlcNAc
# In short: as §1
# [28] = target: Neu5Ac(a2-3)Gal(b1-4)GlcNAc(b1-3)Gal(b1-4)GlcNAc(b1-3)Gal(b1-4)GlcNAc
# In short: as §1
# [29] = target: Neu5Ac(a2-3)Gal(b1-4)GlcNAc(b1-3)Gal(b1-4)[Fuc(a1-3)]GlcNAc
# In short: as §1
# [30] = target: Neu5Ac(a2-3)Gal(b1-4)GlcNAc(b1-3)GalNAc
# In short: as §1
# [31] = target: Neu5Ac(a2-3)Gal(b1-4)GlcNAc(b1-3)[Neu5Ac(a2-3)Gal(b1-4)GlcNAc(b1-6)]GalNAc
# In short: as §1
# [32] = target: Neu5Ac(a2-3)Gal(b1-4)GlcNAc(b1-6)GalNAc
# In short: as §1
# [33] = target: Neu5Ac(a2-3)Gal(b1-4)GlcNAc(b1-6)[Gal(b1-3)]GalNAc
# In short: as §1
# [34] = target: Neu5Ac(a2-3)Gal(b1-4)GlcNAc(b1-6)[Neu5Ac(a2-3)Gal(b1-3)]GalNAc
# In short: as §1
# [35] = target: Neu5Ac(a2-3)Gal(b1-4)GlcNAc6S
# In short: as §1
# [36] = target: Neu5Ac(a2-3)Gal(b1-4)[Fuc(a1-3)]GlcNAc
# In short: as §1
binder,measurement,setting,value
"RVL (Remusatia vivipara), B5LYJ9 (protein) MAKLLLFLLPAILGLLVPRSAVALGTNYLLSGQTLDTEGHLKNGDFDLVMQDDCNLVLYNGNWQSNTANNGRDCKLTLTDYGELVIKNGDGSTVWKSGAQSVKGNYAAVVHPDGRLVVLGPSVFKIDPWVRGLNSLRFRNIPFTNNLLFSGQVLYGDGRLTAKNHQLVMQGDCNLVLYGGKYGWQSNTHGNGEHCFLRLNHKGELIIKDDDFKTIWSSRSSSKQGEYVLILQDDGFGVIYGPAIFETSSKRSIAAS",glycan array binding signal (z-score),[1],-0.165
same,glycan array binding signal (z-score),[2],0.083
same,glycan array binding signal (z-score),[3],-0.145
same,glycan array binding signal (z-score),[4],-0.232
same,glycan array binding signal (z-score),[5],-0.236
same,glycan array binding signal (z-score),[6],-0.018
same,glycan array binding signal (z-score),[7],-0.08
same,glycan array binding signal (z-score),[8],0.064
same,glycan array binding signal (z-score),[9],-0.264
same,glycan array binding signal (z-score),[10],-0.045
same,glycan array binding signal (z-score),[11],-0.116
same,glycan array binding signal (z-score),[12],0.14
same,glycan array binding signal (z-score),[13],-0.213
same,glycan array binding signal (z-score),[14],-0.179
same,glycan array binding signal (z-score),[15],-0.066
same,glycan array binding signal (z-score),[16],-0.281
same,glycan array binding signal (z-score),[17],0.017
same,glycan array binding signal (z-score),[18],-0.131
same,glycan array binding signal (z-score),Neu5Ac(a2-3)Gal(b1-4)Glc,-0.136
same,glycan array binding signal (z-score),[19],-0.239
same,glycan array binding signal (z-score),[20],-0.045
same,glycan array binding signal (z-score),[21],0.071
same,glycan array binding signal (z-score),[22],-0.725
same,glycan array binding signal (z-score),[23],-0.062
same,glycan array binding signal (z-score),[24],3.54
same,glycan array binding signal (z-score),[25],-0.103
same,glycan array binding signal (z-score),[26],-0.012
same,glycan array binding signal (z-score),[27],-0.291
same,glycan array binding signal (z-score),[28],-0.245
same,glycan array binding signal (z-score),[29],-0.066
same,glycan array binding signal (z-score),[30],-0.104
same,glycan array binding signal (z-score),[31],0.1
same,glycan array binding signal (z-score),[32],-0.443
same,glycan array binding signal (z-score),[33],0.083
same,glycan array binding signal (z-score),[34],0.058
same,glycan array binding signal (z-score),[35],-0.033
same,glycan array binding signal (z-score),[36],-0.187
